Data as given in PubChem BioAssay AID504706 (National Center for Advancing Translational Sciences (NCATS), 2011).
The campaign covered roughly 320,000 compounds. About 200 (0.062%) were called active. Inconclusive results, whose numbers are uncertain, are shown with a selection of clear calls. Calls come from the whole dose curve; as a rule, active = well fitted activation curve with a large enough effect; inconclusive = small, poorly fitted or top-dose-only effect; inactive = no such curve, though single readings can be large or run the other way. Potencies of inconclusive entries are left out as doubtful fits.

Experiment: qHTS assay for re-activators of p53 using a Luc reporter; note: nearly all actives have a fitted effect of over 45% in size
Conditions: H1299 p53-A138V BP100-luciferase reporter, luminescence, 24 h; series mostly up to 92.2 µM
Method in brief: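 H1299 (p53-null), stable ts p53-A138V + BP100-Luc; 1000 cells/well, Opti-MEM/10% FBS; cpd 4 pt, 1:5; 24 h, 37 deg C, 5% CO2; detection reagent 10 min RT; luminescence.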
Potency is the fitted concentration of half-maximal effect; tags give direction and shape of the fitted curve.

| SMILES | Potency |
| --- | --- |
| CCS(=O)(=O)c1ccc2oc(Nc3ccccc3C)nc2c1 | inconclusive [activator, partial curve, poor fit] |
| O=C(COC(=O)c1ccccc1)NCCC1=CCCCC1 | inactive |
| COc1ccccc1Cn1c(/C=C/c2ccccc2)nc2ccccc21 | inconclusive [activator, partial curve, poor fit] |
| COc1cccc(-c2nnc(SCC(=O)Nc3cc(C)on3)o2)c1 | inconclusive [activator, partial curve, poor fit] |
| COc1ccc(/C=N/Nc2ccc(C(=O)O)cc2)c(OC)c1OC | inactive |
| CCN1CCN(c2cc(C(C)C)nc3c(-c4ccccc4)c(C)nn23)CC1 | inactive |
| Cc1nc2ccccc2nc1OCc1ccccc1 | inactive |
| Fc1ccc(N/N=C/c2ccncc2)c(F)c1 | inconclusive [activator, partial curve, poor fit] |
| CCOc1ccc(/C=N/NC(N)=S)cc1 | inconclusive [activator, partial curve, poor fit] |
| O=C(CCCc1ccccc1)Nc1ccccn1 | inactive |
| CC(C)c1ccc(/C=C/C(=O)NCCCc2ccccc2)cc1 | inconclusive [activator, single point] |
| CC(=O)N1CCN=C1SCc1ccccc1Cl | inconclusive [activator, full curve, poor fit] |
| CCCCOC(=O)c1ccc(NC(=O)COC(=O)c2ccc3ncsc3c2)cc1 | inconclusive [activator, single point] |
| CCc1nc2c3cnn(-c4cc(Cl)ccc4C)c3ncn2n1 | inconclusive [activator, single point] |
| O=C(O)/C=C/c1ccc(S(=O)(=O)N2CCCCCC2)cc1 | inconclusive [activator, partial curve, poor fit] |
| Cc1ccc(N/N=C(\Cc2nc3ccccc3[nH]2)c2ccccc2)cc1 | inconclusive [activator, full curve, poor fit] |
| CCOc1ccc(-c2nc(=S)[nH][nH]2)cc1 | inconclusive [activator, partial curve, poor fit] |
| COc1ccc(C)cc1NC(=O)CN1CCN(C/C=C/c2ccccc2)CC1 | inactive |
| O=C(Nc1ccc(F)cc1)c1ccc(-n2cncn2)c([N+](=O)[O-])c1 | inactive |
| CC(=O)Nc1sc(N/N=C/c2ccccc2)nc1-c1ccc(C)cc1 | inactive |
| C/C(=N\Nc1ccc([N+](=O)[O-])cc1)c1ccc(N)cc1 | inconclusive [activator, single point] |
| COC(=O)[C@H](Cc1ccccc1)NC(=O)c1cc(COc2c(F)cccc2F)on1 | inconclusive [activator, partial curve, poor fit] |

| SMILES | Potency |
| --- | --- |
| O=C(COC(=O)Cn1cnc2ccccc21)Nc1ccc(OC(F)F)cc1 | inactive |
| CC(C)Oc1ccc(C(=O)Nc2nnc(SCC(=O)N3CCOCC3)s2)cc1 | inactive |
| Cc1nn(-c2ccccc2)cc1C(=S)Nc1ccccc1 | inconclusive [activator, partial curve, poor fit] |
| Cn1ncc2c(Nc3ccc4ccccc4c3)ncnc21 | inconclusive [activator, partial curve, poor fit] |
| COc1ccc(NC(=O)CSc2nc(N)c3cc4c(nc3n2)CCCC4)cc1 | inconclusive [activator, single point] |
| COc1ccc(Nc2nccc(-c3cccc(N)c3)n2)cc1 | inconclusive [activator, full curve, poor fit] |
| CC1=CC(c2ccccc2)n2nc(N3C(=O)C4CC=CCC4C3=O)nc2N1 (centres undefined) | inactive |
| COc1ccc2ccccc2c1/C=N\NC(=O)c1ccc(C)s1 | inactive |
| COc1ccc(NC(=O)n2ncc3c(C)cccc32)cc1 | inconclusive [activator, partial curve, poor fit] |
| CN(Cc1ccccc1)C(=O)CCC(=O)N(C)Cc1ccccc1 | inconclusive [activator, partial curve, poor fit] |
| CC1CCC(NC(=O)c2cc3c(s2)CCCC3)CC1 (centres undefined) | inconclusive [activator, full curve, poor fit] |
| c1ccc(C2(c3ccccc3)OCC(Cn3cncn3)O2)cc1 (centres undefined) | inactive |
| Cc1ccc(C2=Nc3ccccc3N=C(C(Cl)Cl)C2)cc1 | inconclusive [activator, full curve, poor fit] |
| CCOc1ccc2nc(NC(=O)CCC(=O)c3cccs3)sc2c1 | inconclusive [activator, partial curve, poor fit] |
| O=C1C2C3C=CC(C4CC34)C2C(=O)N1/N=C/c1cccs1 (centres undefined) | inconclusive [activator, partial curve, poor fit] |
| CCOC(=O)N1CCN(S(=O)(=O)c2ccc(C(=O)NNc3nc4ccc(Cl)cc4s3)cc2)CC1 | inconclusive [activator, single point] |
| Cc1cc(NC(=O)/C=C/c2ccccc2Cl)n(-c2nc3ccccc3[nH]2)n1 | inconclusive [activator, full curve, poor fit] |
| O=c1c(/C=N/OCc2ccc(Cl)cc2Cl)c[nH]n1-c1cccc(Cl)n1 | inconclusive [activator, single point] |
| CCOC(=O)c1c(C)[nH]c(C(=O)NCc2ccccn2)c1C | inconclusive [activator, partial curve, poor fit] |
| CC(=O)Cn1cnc2c(cnn2-c2ccc(C)c(C)c2)c1=O | inconclusive [activator, partial curve, poor fit] |
| CCCc1nc2ccc(N)cc2c(=O)n1Cc1ccccc1Cl | inconclusive [activator, single point] |
| COc1ccc(C(=O)Cn2nnc(-c3cccs3)n2)cc1 | inconclusive [activator, full curve, poor fit] |
